Reference: PubChem BioAssay AID504832 (National Center for Advancing Translational Sciences (NCATS), 2011)
The whole screen tested about 310,000 compounds, of which about 18,000 (5.8%) were called active. The shares of active, inactive and inconclusive entries below differ from those in the screen. Calls follow the shape of the dose curve; as a rule, active = well fitted inhibition curve with a large enough effect; inconclusive = small, poorly fitted or top-dose-only effect, or another doubt; inactive = no such curve, though single readings can be large or run the other way. Potencies of inconclusive entries are left out as doubtful fits.

experiment: Primary qHTS for delayed death inhibitors of the malarial parasite plastid, 48 hour incubation; conditions: P. falciparum luciferase growth in erythrocytes; series mostly up to 28.7 µM; activity change, negative = inhibition: at the top concentration
Method in brief: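 Erythrocytes infected with P. falciparum carrying an integrated firefly luciferase reporter (2% hematocrit, 0.1% parasitemia final) were exposed to compounds in RPMI 1640 with 0.5% Albumax at 37 C, 5% CO2. Growth inhibition was scored as reduced luminescence.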
% is scaled to controls: 0 for no effect and ±100 for the full control effect; potency is read from the fitted curve at half-maximal effect; tags tell the direction and shape of the fitted curve.

Row | Structure (SMILES) | activity change, negative = inhibition | Potency
1 | O=C(COc1ccc(Cl)cc1Cl)Nc1ccc(CN2CCOCC2)cc1 | inactive: -4.85% | –
2 | COc1cccc(/C=C/c2ccncc2)c1OC | – | inconclusive [inhibitor, single point]
3 | CC(=O)c1ccc(OC(C)C(=O)OCC(=O)NCCc2ccccc2)cc1 (centres undefined) | – | inconclusive [inhibitor, single point]
4 | CC1(C)CC(C)(c2ccc(O)cc2O)N(c2ccc3ccccc3c2)C(=S)N1 (centres undefined) | – | inconclusive [inhibitor, single point]
5 | COc1cc2c(cc1NC(=O)/C=C/c1ccc([N+](=O)[O-])cc1)oc1ccccc12 | inactive: 31.4% | –
6 | COc1ccc(N(C)S(=O)(=O)c2cccc(C(=O)Nc3nc(C)cs3)c2)cc1 | – | active: 13.1 µM
7 | CC(C)C1=Nc2cccc3cccc(c23)N1 | – | inconclusive [inhibitor, single point]
8 | CCOc1ccc(Nc2nc(Cc3nnc(SCC(=O)N(CC)CC)n3C)cs2)cc1 | – | inconclusive [inhibitor, single point]
9 | COc1cc2c(cc1OC)-c1cc(=Nc3c(C)cc(C)cc3C)n(C)c(=O)n1CC2 | – | active: 0.675 µM
10 | CC(=O)c1ccc(NC(=O)Nc2ccc(S(=O)(=O)N3CCCC3)cc2)cc1 | – | inconclusive [inhibitor, partial curve, poor fit]
11 | Cc1cc(NC(=O)CSc2ccc(F)cc2)no1 | inactive: 11.8% | –
12 | Fc1cccc(CN2CCN(Cc3nc(CCc4ccccc4)no3)CC2)c1 | inactive: 34.8% | –
13 | Cc1csc(=O)n1CC(=O)OCC(=O)Nc1ccc(Cl)cc1F | inactive: 1.19% | –
14 | COC(=O)c1cnn(-c2ccc(F)cc2F)c1/C=N/NC(=S)NC(C)(C)C | – | inconclusive [inhibitor, single point]
15 | COc1ccc(-n2ccnc(SCC(=O)NCc3ccc(C)cc3)c2=O)cc1Cl | – | inconclusive [inhibitor, single point]
16 | Cc1nn(Cc2ccccc2)c(C)c1NC(=O)c1ccc([N+](=O)[O-])cc1[N+](=O)[O-] | – | inconclusive [inhibitor, single point]
17 | Cc1nnc(NC(=O)c2csc3c2CCC(C)C3)s1 (centres undefined) | – | inconclusive [inhibitor, partial curve]
18 | O=C(Nc1cccc(F)c1)c1cc(S(=O)(=O)NCCC2=CCCCC2)ccc1F | – | inconclusive [inhibitor, single point]
19 | COc1ccc(/C=C\C(=O)NCc2ccc3c(c2)cc(C)n3C)cc1OC | – | inconclusive [inhibitor, single point]
20 | CCOC(=O)C1=C(COC(=O)/C=C/c2cccc(OC)c2OC)NC(=O)NC1C (centres undefined) | inactive: -13.6% | –
21 | COc1ccc(N2CCN(C(=O)CN=C3NS(=O)(=O)C(c4ccc(C)cc4)=C3C)CC2)cc1 | – | inconclusive [inhibitor, single point]
22 | CSc1cccc(NC(=S)NCCCN2CCN(c3ccc(F)cc3)CC2)c1 | – | inconclusive [inhibitor, partial curve, poor fit]
23 | CCn1c(C)nc2cc(C(=O)n3cc(C(=O)c4cc(F)ccc4O)cn3)ccc21 | inactive: 28.4% | –

Row | Structure (SMILES) | activity change, negative = inhibition | Potency
24 | CCCN1CC=C2C(C#N)=C(N)C(C#N)(C#N)C(c3cccc(OC)c3OC)C2C1 (centres undefined) | – | inconclusive [inhibitor, partial curve]
25 | CCOc1cc(/C=C2/SC(=O)N(CC(=O)N3CCc4ccccc4C3)C2=O)ccc1OCC(=O)O | – | inconclusive [inhibitor, single point]
26 | CCc1cc(=O)oc2c3c(cc(OCC(=O)NCc4ccncc4)c12)OC(C)(C)CC3 | – | active: 10.4 µM
27 | COC(=O)CCC(=O)Oc1ccc(OC(=O)CCC(=O)OC)cc1 | – | inconclusive [inhibitor, partial curve]
28 | COc1ccc(N2CCN(C(c3ccccc3)c3nnnn3Cc3ccc(F)cc3)CC2)cc1 (centres undefined) | – | active: 9.28 µM
29 | CCc1cc(C(=O)NNC(=S)NCc2ccccc2)cs1 | inactive: 6.09% | –
30 | Cc1nnc(-c2cnn(C)c2N)n1CCCN1CCOCC1 | – | inconclusive [inhibitor, single point]
31 | COc1ccc(C(O)c2coc3ccc(O)c(CN(C)C)c23)cc1 (centres undefined) | – | inconclusive [inhibitor, single point]
32 | CCc1cc(C(c2ccc(OC)c(OC)c2)N2CCOCC2)c(NC(=O)c2ccccc2)s1 (centres undefined) | – | inconclusive [inhibitor, single point]
33 | COc1cccc(NC(=S)N(CCCN2CCCC2)Cc2cccn2Cc2ccc(Cl)cc2)c1 | – | inconclusive [inhibitor, full curve, poor fit]
34 | COc1ccc(S(=O)(=O)Nc2cccc(F)c2C)cc1C(=O)N1CCOCC1 | inactive: 17.1% | –
35 | CN(C)C(=O)Oc1ccc(Br)cc1C(=O)Nc1ccc(F)c(Cl)c1 | – | active: 1.17 µM
36 | CC1=C(C(=O)OC2CCCC2)C(c2ccc(C)o2)C2=C(CC(c3cccs3)CC2=O)N1 (centres undefined) | – | active: 9.28 µM
37 | CC(=O)N/N=C(\C)CC(=O)Nc1cccc2c1CCCC2 | inactive: 33.2% | –
38 | Cc1ccc(C(=O)Nc2ccccc2N2CCCC2)cc1S(=O)(=O)N1CCOCC1 | – | inconclusive [inhibitor, partial curve]
39 | N#Cc1ccc(C(=O)NC2=NCCS2)cc1 | inactive: 134% | –
40 | Cc1ccc(-c2ccc(=O)n(CCC(=O)N3CCN(c4ccccc4)CC3)n2)cc1 | – | inconclusive [inhibitor, partial curve, poor fit]
41 | C/C(Cn1nnc([N+](=O)[O-])n1)=N\NC(=O)c1ccccc1Cl | – | active: 7.38 µM
42 | Cc1cccc(-c2nc3c(c(SCC(=O)N(C)C)n2)CCCC3)c1 | – | inconclusive [inhibitor, single point]
43 | O=C(CCNC(=O)c1ccccc1Cl)N/N=C\c1ccc(O)cc1 | – | inconclusive [inhibitor, single point]
44 | NC(=O)c1ccc(-c2ccc(Br)cc2)o1 | – | inconclusive [inhibitor, full curve, poor fit]
45 | O=C(c1ccncc1)c1ccc(N2CCN(C3CC(=O)N(Cc4ccccc4)C3=O)CC2)cc1 (centres undefined) | – | inconclusive [inhibitor, single point]
46 | CCOC(=O)c1sc(NC(=O)c2cccc(S(=O)(=O)N3CCc4ccccc43)c2)c(C#N)c1C | – | inconclusive [inhibitor, partial curve, poor fit]

Row | Structure (SMILES) | activity change, negative = inhibition | Potency
47 | Cc1ccc(/C=C/C(=O)N2CCN(c3ccc(F)cc3)CC2)o1 | inactive: 33.2% | –
48 | O=c1c2ccccc2nc(SCc2cc(F)ccc2F)n1C1CCCC1 | – | inconclusive [inhibitor, single point]
49 | COc1cc(NC(=O)c2cc3cccc(OC)c3o2)cc(C(=O)Nc2cccc(C(F)(F)F)c2)c1 | – | active: 13.1 µM
50 | COc1ccc(CCNC(=O)Cn2cc(C(F)(F)F)cc(Cl)c2=O)cc1 | inactive: -1.95% | –
51 | Cc1ccc(C)c(NC(=O)Cn2cnc3c(oc4ccccc43)c2=O)c1 | – | active: 10.4 µM
52 | O=C1NC(=O)C(CCc2ccncc2)(CCc2ccncc2)C(=O)N1Cc1ccccc1 | – | inconclusive [inhibitor, partial curve]
53 | CC(C)N(Cc1ccccc1)C(=O)COc1ccccc1 | inactive: -5.36% | –
54 | Cc1c(Cl)cnc(NC(=O)COC(=O)c2cccs2)c1Cl | inactive: -11.6% | –
55 | O=C(N/N=C\c1ccccc1)c1ccccc1-n1cccc1 | – | inconclusive [inhibitor, full curve, poor fit]
56 | CCCc1ccc(S(=O)(=O)N2CCN(C(C)C(=O)NC3CCCC3)CC2)cc1 (centres undefined) | – | inconclusive [inhibitor, single point]
57 | C=CCn1c(SCC(=O)N2CCc3ccccc3C2)nc2sc(C)cc2c1=O | – | inconclusive [inhibitor, partial curve, poor fit]
58 | COc1cccc(N2CCN(C(=O)c3oc4ccccc4c3NC(=O)CCc3cc(OC)no3)CC2)c1 | – | inconclusive [inhibitor, single point]
59 | CC(OC(=O)CN1C(=O)NC2(CCCCC2C)C1=O)c1ccccc1 (centres undefined) | – | inconclusive [inhibitor, single point]
60 | Cc1cc(C)c2[nH]c(=O)c(CN(Cc3ccc4c(c3)OCO4)Cc3nnnn3C3CCCC3)cc2c1 | – | active: 11.7 µM
61 | c1coc(CN(Cc2cccs2)Cc2nnnn2C2CCCCC2)c1 | – | inconclusive [inhibitor, single point]
62 | Cc1ccc(NC(=O)CN(C)c2ccc(S(=O)(=O)N3CCN(C)CC3)cn2)cc1 | – | inconclusive [inhibitor, partial curve, poor fit]
63 | CCOc1ccc2nc(NC(=O)C3CCCN(S(=O)(=O)c4cccs4)C3)sc2c1 (centres undefined) | – | active: 14.7 µM
64 | O=[N+]([O-])c1c(NCCO)cc(N2CCN(Cc3ccc4c(c3)OCO4)CC2)c2nonc12 | – | inconclusive [inhibitor, partial curve, poor fit]
65 | COc1ccc(-c2nc3c(-c4ccccc4)cnn3cc2C)cc1F | – | inconclusive [inhibitor, single point]
66 | COc1ccc(-c2noc(CSc3nnc(CCc4ccccc4)n3-c3ccccc3)n2)cc1OC | – | inconclusive [inhibitor, partial curve]
67 | OCC1(CCOc2ccccc2)CCN(CC2=Cc3cc(Cl)ccc3OC2)CC1 | – | inconclusive [inhibitor, single point]
68 | O=C1CCC(c2ccc(-n3ccnc3)cc2)=NN1 | inactive: -2.8% | –
69 | CC(=O)Nc1ccc(C(=O)OCC(=O)N2CCC(Cc3ccccc3)CC2)cc1 | – | inconclusive [inhibitor, partial curve, poor fit]
